First the molecules themselves.
B1: LINE1-mini (parent)
chain: GGCAGAGCUCAACACAGCGUGGCAAAGUGGCUGUGGCUAGACUGCC

Read counts are not given, so values of variants with three or more changes are uncertain.

In the series the parent is B1. Kind of series: self-cleavage, relative activity (ratio to wild type); higher = more cleavage; in vitro, sequencing; the parent is a self-cleaving ribozyme.
With GGCAGAUCUCUACACAGCGUGGCAAAGUGGCUGUUGCUAGACUGCU [G7U A11U G35U C46U], the self-cleavage is 0.02.

As to GGCAGAUCUCAGCACAGCGUGGAAAAGUGGCUGUGGCUAGACUGCC [G7U A12G C23A], the self-cleavage turned out to be 0.01.

In the case of GGCAGAUCUCAACACGGCGUGGCAAAGUGGCUAUGGCUAGACUCCC [G7U A16G G33A G44C], the self-cleavage was 0.07.

Consider GGCAGAUCUCAACACAGCGUGGCCAAGUGACUGUGGCUAGCCUGCC [G7U A24C G30A A41C], for which the self-cleavage was determined as 0.15.

As to GGCAGACCGCAACACAGCGUGGAAAAGUGGCUGUGGCUAGACUGCC [G7C U9G C23A], the self-cleavage worked out at 0.55.

Take GGCAGAUCUCACCACAGCGUGGCAAAGAGGCUGUGGCUAGACUGCC [G7U A12C U28A]: the self-cleavage was 0.01.

On to GGCAGAUCUCUACACAGCGUGGUAAAGUAGCUGUUGCUACACUGCC [G7U A11U C23U G29A G35U G40C], for which the self-cleavage amounted to 0.01.

Consider GGCAGAUCUCUACACAGCGUGGCAAAGCGGCUGUGGCUAGACUGCC [G7U A11U U28C], for which the self-cleavage was 0.

Turning to GGCAGACCUCAACACAGCGUGGCAAAGUGGCGUUGGGUAGACUGCC [G7C U32G G33U C37G], the self-cleavage worked out at 0.06.

GGCAGAUCUCAACACAGCGUGGCGAAGUGCCUGUGGCUAGACUUCC [G7U A24G G30C G44U]: the self-cleavage stood at 0.02.

For the variant GGCAGAUCUCAGCACAGCGUGGCAAAGUGGCUGUGGCUAGCCUGCC [G7U A12G A41C], the self-cleavage stood at 0.01.

Consider GGCAGAUCUCAACACAGCGUGGCACAGAGGUUGUGGCUAGACUGCC [G7U A25C U28A C31U], for which the self-cleavage was determined as 0.01.

Regarding GGCAGAUCUCAUCACAGCCUGACAAAGAGGCUUUGGCUAGACUGCC [G7U A12U G19C G22A U28A G33U], the self-cleavage was found to be 0.01.

As for GGCAGAUCUCAUGACAGCGUGGCUAAAUGGCUGUGGCUAGACUGCC [G7U A12U C13G A24U G27A], the self-cleavage amounted to 0.53.

As to GGCAGAUCUCAACACAGCGUGGCAGAAUGGUUGUGGCAAGACUGCC [G7U A25G G27A C31U U38A], the self-cleavage is 0.12.

As to GGCAGAUCUCUAGACAGCGUGGCAAAAUGUCUGUGGCUCGACUGCC [G7U A11U C13G G27A G30U A39C], the self-cleavage came out at 0.02.

Take GGCAGAUCUCACCACAGCGUGGCAAAGUGGUUGUGGCUAGACUGCC [G7U A12C C31U]: the self-cleavage was 0.03.

Turning to GGCAGAUCUCAACCCAGCGUGGCAAAGUGGCUGUGGCUAGACUACC [G7U A14C G44A], the self-cleavage amounted to 0.05.

For GGCAGAUCUCCACACAGCGUGGCAAAGUGGCUGUGGCCAGACUGCC [G7U A11C U38C], the self-cleavage came to 0.04.

Regarding GGCAGACCUCAACACAGCGGGGCAAUGUGGCUGUGGCUAGACUGCC [G7C U20G A26U], the self-cleavage is 0.23.

Regarding GGCAGAUCUCAACACAGCGUGGCGAAGUGGAUGUGGCUAGACUGCC [G7U A24G C31A], the self-cleavage stood at 0.02.

GGCAGAUCUCAACACUGCGUGGCAAAGUGGCUGCGACUAGAGUGCC [G7U A16U U34C G36A C42G]: the self-cleavage was 0.05.

For the variant GGCAGAUCUCAACCGCGCGUGGCAAAGUGGCUGUGACUAGACUGCC [G7U A14C C15G A16C G36A], the self-cleavage was 0.01.

Regarding GGCAGACCACAACACAGCGUGGCAAAGUGGCCGUGGCUAGACUGCC [G7C U9A U32C], the self-cleavage was 0.03.

With GGCAGAUCUCAACACAGCGUGGCGAAGUGGCUCUGGCUAGAAUUCC [G7U A24G G33C C42A G44U], the self-cleavage came to 0.02.

Consider GGCAGACCUCAACACAGCGCGGCAAAGUGGCUGUGGCUAGACUGAC [G7C U20C C45A], for which the self-cleavage is 0.04.

As for GGCAGAUCUCCAGUCAGCGUGGCAAAGUGGCUGUGGCUAGACUGCC [G7U A11C C13G A14U], the self-cleavage came out at 0.04.

As for GGCAGAUCUCGAAACAGCGUGGCAAAGUGGCUGUGGCCAGACUGCC [G7U A11G C13A U38C], the self-cleavage worked out at 0.03.

For GGCAGACCGUGACACAGCAAGGCAAAGUGGCUGUGGCUAGACUGCC [G7C U9G C10U A11G G19A U20A], the self-cleavage stood at 0.01.

As for GGCAGAUCUCAACCCAGCGUGGCAGACUGGCUGUGGCUAGACUGCC [G7U A14C A25G G27C], the self-cleavage was found to be 0.06.

Consider GGCAGACCGGAACACAGCGUGGUAAAGUGUCUGUGGCUAGACUGCU [G7C U9G C10G C23U G30U C46U], for which the self-cleavage came to 0.02.

Take GGCAGACCCCAACACAGCGUGGCAAAGUGGCUCUGGCUAGAGUGCG [G7C U9C G33C C42G C46G]: the self-cleavage is 0.02.

In the case of GGCAGACCUCAACACAGCGUGGCAAAGUGGCUGUGGCCAAGCUGCC [G7C U38C G40A A41G], the self-cleavage turned out to be 0.29.

For GGCAGAUCUCAGCACAGCGUGGCAAAGUGGCUGUGGCUAUACUGCC [G7U A12G G40U], the self-cleavage stood at 0.1.

As for GGCAGAUCUCAACUCCGCGUGGCAAAGCGGUUGUGGAUAGACUGCC [G7U A14U A16C U28C C31U C37A], the self-cleavage amounted to 0.02.

For GGCAGAUCUCUACACAGCGUGGCAUACUGGCUGUGGCUAGGCUGCC [G7U A11U A25U G27C A41G], the self-cleavage was determined as 0.01.

For GGCAGACCCCAACAUAGCGUGGCAAAGUAGCUGUGGCUAGACUGCC [G7C U9C C15U G29A], the self-cleavage came to 0.02.

GGCAGAUCUCUACACAGCAUGGCAAAGUGGCUGUGGCUUGACUGCC [G7U A11U G19A A39U]: the self-cleavage turned out to be 0.08.

In the case of GGCAGACCUCAACACAGCGCGACAAAGUGGCUUUGGCUAGACUACC [G7C U20C G22A G33U G44A], the self-cleavage was 0.07.

GGCAGAUCUCAACUCAGCGUGGCAAAGUGGCUCUGGCAAGACUGCC [G7U A14U G33C U38A]: the self-cleavage is 0.19.

On to GGCAGAUCUCAUCACAGCCGGGCAAAGUGGCUGUGGCUAGAAUGCC [G7U A12U G19C U20G C42A], for which the self-cleavage turned out to be 0.02.

As to GGCAGACCCCAACAUAGCGUCGCAAAGUGGCUGUGGCUAGAGUGUC [G7C U9C C15U G21C C42G C45U], the self-cleavage is 0.02.

GGCAGAUCUCUACACAGCGCGGCAAAAUGGCUGUGGCUAGACUGCC [G7U A11U U20C G27A]: the self-cleavage was 0.02.

In the case of GGCAGAUCUCAACUCAGCGUGGCAAAGUGGCUUUGGGUAGACUGCC [G7U A14U G33U C37G], the self-cleavage is 0.05.

With GGCAGAUCUCGAGACAGCGUGGCCAAGGGGCUGUGGCUACACUGAC [G7U A11G C13G A24C U28G G40C C45A], the self-cleavage was 0.01.

As for GGCAGAUCUCAGCACAGCGUGGAAAAGUGGCUGUAGCUAGACUGCC [G7U A12G C23A G35A], the self-cleavage turned out to be 0.01.

As for GGCAGAUCUCAACACAGCGUGGCACAGUGGCUGUGGUUAGACUGCC [G7U A25C C37U], the self-cleavage was found to be 0.02.

As for GGCAGAUCUCAACACAGCGUGGCACAGUGGCUGUGGCGAGACUGCC [G7U A25C U38G], the self-cleavage is 0.

With GGCAGAUCUCAACACAGCGUGGCAACGCGGCUGUGGCCAGACUGCC [G7U A26C U28C U38C], the self-cleavage came out at 0.02.

GGCAGACCUCAACACAGCGUGGCAAAGAGGUUGUGGCUAGAUUGCC [G7C U28A C31U C42U]: the self-cleavage was found to be 0.06.

On to GGCAGAUCUCAACACAGCGUGGCCCAUUGGCUGUGGCUAGACUGCC [G7U A24C A25C G27U], for which the self-cleavage amounted to 0.08.

On to GGCAGAUCUCAACACGGCGUGGCAAACUGGCUGUGGCUAGACUGCC [G7U A16G G27C], for which the self-cleavage worked out at 0.06.

For GGCAGAUCUCAACUCAGCGAGGCCAAGUGGCUAUGGCUAGAAUGCC [G7U A14U U20A A24C G33A C42A], the self-cleavage amounted to 0.13.

For GGCAGACCUCAACACAGCGUGGCAAAGGGGCUGUGGCUAGACGGGC [G7C U28G U43G C45G], the self-cleavage amounted to 0.02.

For GGCAGAUCUCAACACCGCGUGGCAAAGUGGGUGUGGCUAGACUGCC [G7U A16C C31G], the self-cleavage amounted to 0.

For the variant GGCAGACCGCAACACAGCGUGGCAAAGUGGCUGUGGCUAAACCGCU [G7C U9G G40A U43C C46U], the self-cleavage worked out at 0.01.

The record behind these values is the RNAGym collection of RNA variant scans (doi:10.7554/elife.90254).
